Measurements reported in PubChem BioAssay AID881 (National Center for Advancing Translational Sciences (NCATS), 2007).
Several values for one entry are separate records, joined by “and”; a condition that tells them apart may be missing. Equal entries are not always repeated. Hit rate of the full screen: of about 110,000 compounds, about 610 (0.55%) were called active. Inconclusive results, whose numbers are uncertain, are shown with a selection of clear calls. Calls follow the shape of the dose curve; as a rule, active = well fitted inhibition curve with a large enough effect; inconclusive = small, poorly fitted or top-dose-only effect; inactive = no such curve, though single readings can be large or run the other way. Potencies of inconclusive entries are doubtful fits and often do not repeat.

target: Polyunsaturated fatty acid lipoxygenase ALOX15B (Homo sapiens) (UniProt O15296); assay: qHTS Assay for Inhibitors of 15-hLO-2 (15-human lipoxygenase 2); details: purified 15hLO-2, xylenol orange hydroperoxide absorbance; activity change, negative = inhibition: at 57.1 µM (top of the series) unless noted; also: nearly all actives have a fitted effect of over 60% in size
Outline: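 Screening format was qHTS against 50 nM purified 15hLO-2 in Hepes pH 7.5 with detergent. Activity follows hydroperoxide formation from 45 uM arachidonic acid, measured as 573:405 nm absorbance ratio of the ferric-xylenol orange complex.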
% is scaled to controls: 0 for no effect and ±100 for the full control effect; potency is read from the fitted curve at half-maximal effect; tags tell the direction and shape of the fitted curve.

Sequence of UniProt O15296 (O15296 whole entry, looked up): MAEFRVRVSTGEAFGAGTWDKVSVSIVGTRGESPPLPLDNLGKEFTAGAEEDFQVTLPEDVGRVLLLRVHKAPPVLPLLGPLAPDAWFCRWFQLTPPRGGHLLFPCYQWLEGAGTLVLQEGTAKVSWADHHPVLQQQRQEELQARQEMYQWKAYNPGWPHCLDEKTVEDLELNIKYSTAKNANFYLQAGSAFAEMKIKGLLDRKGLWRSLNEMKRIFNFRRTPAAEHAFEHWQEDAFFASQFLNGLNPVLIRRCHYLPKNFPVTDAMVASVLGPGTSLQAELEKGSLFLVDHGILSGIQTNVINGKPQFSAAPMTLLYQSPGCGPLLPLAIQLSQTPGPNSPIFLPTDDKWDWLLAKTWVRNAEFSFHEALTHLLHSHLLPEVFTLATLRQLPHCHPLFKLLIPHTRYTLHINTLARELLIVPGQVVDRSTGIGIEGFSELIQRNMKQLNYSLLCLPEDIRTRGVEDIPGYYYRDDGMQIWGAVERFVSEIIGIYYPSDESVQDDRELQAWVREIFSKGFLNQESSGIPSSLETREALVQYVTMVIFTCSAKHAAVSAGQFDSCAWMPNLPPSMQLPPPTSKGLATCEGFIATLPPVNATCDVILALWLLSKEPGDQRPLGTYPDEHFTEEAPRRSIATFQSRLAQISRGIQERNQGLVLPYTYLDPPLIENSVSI

Compound	Potency	activity change, negative = inhibition
Cc1cc(C)c2oc(-c3ccc(C)c(NC(=S)NC(=O)c4cccs4)c3)nc2c1	inconclusive: 6.31 µM [inhibitor, partial curve]	
O=[N+]([O-])c1cccc2cn[nH]c12	inactive	
CNc1nn(-c2cccc(Cl)c2)nc1N	inconclusive: 10 µM [inhibitor, partial curve]	
COc1ccc(CCNC(=O)CSc2nncn2N)cc1OC	inactive	
O=Nc1c(O)n(Cc2ccc(Cl)c(Cl)c2)c2ccccc12	inconclusive: 20 µM [inhibitor, partial curve]	
CCOc1ccc(-c2nnc(NC(=O)c3ccc(OCC(C)C)c(OC)c3)o2)cc1	inactive	
O=C(Cc1cccs1)Nc1nc2c(s1)CCCC2	inconclusive: 0.316 µM [inhibitor, single point]	
C[C@@H](C(=O)O)c1ccc(N2Cc3ccccc3C2=O)cc1	inactive	
C=CCNC(=S)N/N=C/c1ccc(-c2cc(Cl)ccc2Cl)o1	inconclusive: 25.1 µM [inhibitor, single point]	
COc1cc(Sc2ccc(C)cc2)c(OC)cc1N	active: 10 µM	
OC[C@@H]1O[C@@H](n2cnc3c(Nc4ccccc4)ncnc32)[C@@H](O)[C@H]1O	inactive	
c1ccc2[nH]c(SN3CCOCC3)nc2c1	inconclusive: 6.31 µM [inhibitor, single point]	
O=C(NCc1ccccc1Cl)C1CCN(S(=O)(=O)N2CCC3(CC2)OCCO3)CC1	inconclusive: 0.158 µM [inhibitor, full curve, poor fit]	
N#Cc1ccc(CSc2nnc(Cc3cccs3)n2Cc2ccco2)cc1	inconclusive: 31.6 µM [inhibitor, single point]	
N=c1c2c(n(Cc3ccc(Cl)c(Cl)c3)c3c1CCC3)CCCC2	inactive	
O=c1c(O)c(-c2cc(O)c(O)c(O)c2)oc2cc(O)cc(O)c12	inconclusive: 1.26 µM [inhibitor, full curve] and inconclusive: 2 µM [inhibitor, full curve]	
CC1CCN(C(=S)c2ccccc2O)CC1	inconclusive: 39.8 µM [inhibitor, single point]	
O=c1cc(-c2ccccc2)oc2cc(O)c(O)cc12	inconclusive: 25.1 µM [inhibitor, single point]	
COc1ccc2nc(NC(C)=O)sc2c1	inconclusive: 0.316 µM [inhibitor, full curve]	
Cc1sc(NC(=O)c2cc(-c3ccc(Cl)cc3)nc3ccccc23)c(C(N)=O)c1C	inconclusive: 10 µM [inhibitor, partial curve]	
Cc1sc(-n2c(C)ccc2C)c(C#N)c1C	inactive	
CCOC(=O)c1ccc(Oc2cc(C)nc(SC)n2)cc1	inconclusive: 12.6 µM [inhibitor, partial curve]	
CC1(C)Cc2c(c(N3CCOCC3)nc3sc4c(NCc5ccco5)nnnc4c23)CS1	inconclusive: 25.1 µM [inhibitor, single point]	

Compound	Potency	activity change, negative = inhibition
S=c1[nH]c2cc(Cl)ccc2s1	inconclusive: 25.1 µM [inhibitor, partial curve]	
Cc1ccc(S(=O)(=O)NCCCC(=O)C=[N+]=[N-])cc1	inactive	
O=C(Cn1c(=O)n(Cc2ccco2)c(=O)c2c3c(sc21)CCCCC3)Nc1ccccc1	inconclusive: 10 µM [inhibitor, partial curve]	
COc1ccc(C(=O)Nc2ccc3[nH]c(-c4cccc(OC)c4)cc(=O)c3c2)cc1		inactive: -3.28% [at 0.0915 µM]
Cc1ccccc1NC(=S)NC(NC(=O)COc1ccccc1)C(Cl)(Cl)Cl (stereo not given)	inconclusive: 25.1 µM [inhibitor, single point]	
O=C(COc1ccc(/C=N/NC(=O)c2cc3ccccc3o2)cc1Cl)Nc1ccccc1	inconclusive: 15.8 µM [inhibitor, single point]	
CCCCCOCC1CC(C/C(C)=N/Nc2nc(-c3ccccc3)cs2)C(=O)O1 (stereo not given)	inconclusive: 3.98 µM [inhibitor, full curve, poor fit]	
Cc1cc(C)cc(C(=O)N(C)[C@H](Cc2ccc(-c3ccccc3)cc2)C(=O)N[C@@H](Cc2c[nH]c3ccccc23)C(=O)O)c1	inconclusive: 39.8 µM [inhibitor, partial curve, poor fit]	
CCOc1cc(CNc2ccc(N(C)C)cc2)cc(Br)c1OCC(=O)NC(C)(C)C	inconclusive: 0.631 µM [inhibitor, partial curve]	
CCNc1c([N+](=O)[O-])ncn1C	inconclusive: 15.8 µM [inhibitor, partial curve]	
O=c1c(O)c(-c2cccs2)oc2ccc(Cl)cc12	inconclusive: 7.94 µM [inhibitor, partial curve]	
CSc1nsc(/C=C/Nc2ccc(Cl)cc2)c1C#N	inconclusive: 0.251 µM [inhibitor, full curve, poor fit]	
CCCCCCCC/C=C\CCCCCCCC(=O)N[C@@H](CO)Cc1ccc(O)cc1	inactive	
O=C(CSC1=NCCS1)N1CCN(c2ccc(Cl)cc2)CC1	inconclusive: 0.199 µM [inhibitor, full curve, poor fit]	
Cc1ccc(-c2c3c([nH]c(=S)c2C#N)CCCC3)o1	inconclusive: 12.6 µM [inhibitor, partial curve]	
O=C(C1=C(O)C(=O)N(c2ncccn2)C1c1ccc(Cl)c(Cl)c1)c1ccco1 (stereo not given)	inconclusive: 15.8 µM [inhibitor, partial curve]	
N#CC1=C(N)SC2(CCCCC2)SC1c1ccccc1 (stereo not given)	inconclusive: 15.8 µM [inhibitor, partial curve]	
c1ccc2c(c1)Cc1cc3cc4c(cc3nc1-2)OCO4	inactive	
COc1ccc(C(=O)N2CCC[C@@]3(CCN(Cc4ccccc4OC)C3)C2)cc1	inactive	
COc1cc(CNc2ccc3c(c2)CCC3)cc(OC)c1O	inconclusive: 15.8 µM [inhibitor, partial curve]	
Cc1cc(C(=O)N2CCN(c3ncccn3)CC2)c(C)o1	inactive	
Cc1ccc(S(=O)(=O)C(C#N)c2nc3ccccc3nc2N2CCC(C)CC2)cc1 (stereo not given)	inconclusive: 12.6 µM [inhibitor, partial curve]	
